Assay results as given in a compilation of properties of binary mixtures (doi:10.1021/acs.jced.3c00537).
Some of these densities may be calculated back from excess volumes.

Test: xn = mol fraction of the nth substance listed
Conditions: 100 kPa

CC[n+]1ccn(C)c1.COP(=O)([O-])OC + CCO
mass density [kg/m3]
Conditions	293.15 K	298.15 K	303.15 K	308.15 K	313.15 K	318.15 K	323.15 K	328.15 K	333.15 K	338.15 K
x1 = 0.0202	821	816	812	–	804	799	795	791	–	782
x1 = 0.0402	848	844	840	836	831	827	823	819	814	810
x1 = 0.0802	895	891	887	883	879	–	871	867	863	–
x1 = 0.1004	915	911	907	903	899	895	891	887	–	879
x1 = 0.1203	934	930	926	–	–	914	911	906	902	898
x1 = 0.1594	966	963	959	955	–	947	943	–	936	932
x1 = 0.2032	997	994	990	986	982	979	975	971	967	964
x1 = 0.3007	1052	1049	–	1041	–	–	1030	1027	1023	1019
x1 = 0.3994	1094	1091	1087	1083	1080	1076	1073	1069	1065	1062
x1 = 0.5013	1128	–	1120	1117	1113	1110	–	1103	1099	1096
x1 = 0.5994	1153	1150	–	1143	–	1136	1133	1129	1126	1122
x1 = 0.7006	–	–	1168	1165	1161	1158	1154	–	–	1144
x1 = 0.8011	1193	–	1186	1182	1179	1176	–	1169	1165	1162
x1 = 0.8988	1207	1204	1200	1197	1194	1190	1187	1184	1180	–
x1 = 1	1220	1217	1214	–	–	1203	1200	1197	–	1190

COP(=O)([O-])OC.Cn1cc[n+](C)c1 + CCO
mass density [kg/m3]
Conditions	293.15 K	298.15 K	303.15 K	308.15 K	313.15 K	318.15 K	323.15 K	328.15 K	333.15 K	338.15 K
x1 = 0.0201	821	816	812	–	804	–	795	–	786	–
x1 = 0.0402	848	–	840	836	831	827	823	819	814	810
x1 = 0.0803	896	892	888	884	880	876	872	868	864	–
x1 = 0.1005	–	914	–	906	902	898	894	890	–	882
x1 = 0.1193	936	932	928	–	920	917	913	909	905	900
x1 = 0.1597	–	–	–	960	957	953	949	945	–	937
x1 = 0.2006	1004	1000	–	992	988	985	981	977	973	969
x1 = 0.3005	1066	1063	–	1055	1051	–	–	1040	–	1033
x1 = 0.4031	1116	1112	1108	1105	–	1097	1094	1090	1086	1083
x1 = 0.4996	1151	1147	1144	1140	1136	1133	1129	–	1122	–
x1 = 0.6043	1182	1179	1175	1172	1168	1165	1161	1158	1154	1151
x1 = 0.7009	1207	–	1199	1196	1192	–	–	1182	–	1175
x1 = 0.797	–	–	–	1216	–	1209	–	–	1199	1195
x1 = 0.8995	1244	–	1237	–	1230	1227	–	1220	–	1213
x1 = 1	1260	1257	1253	–	1246	–	1240	1236	1233	1229

CCO + CC[n+]1ccn(C)c1.COP(=O)([O-])OC
x2 = 0
Conditions	mass density [kg/m3]
293.15 K	790
303.15 K	781
308.15 K	777
313.15 K	772
318.15 K	768
323.15 K	763
333.15 K	754
338.15 K	749

CCO + COP(=O)([O-])OC.Cn1cc[n+](C)c1
x2 = 0
Conditions	mass density [kg/m3]
293.15 K	790
303.15 K	781
313.15 K	772
318.15 K	768
323.15 K	763
333.15 K	754
338.15 K	749
